{
  "source": "patent US20140093496A1",
  "about": "(Chugai, published 2014)",
  "key": {"[1]": {"molecular_target": "T1, FcγRIa extracellular domain with C-terminal His tag (human, UniProt P12314 16-292)", "T1 construct": "whole entry named; also called FcgRIa; CD64A; not shown: His tag at the C terminus", "T1 sequence (P12314 16-292)": "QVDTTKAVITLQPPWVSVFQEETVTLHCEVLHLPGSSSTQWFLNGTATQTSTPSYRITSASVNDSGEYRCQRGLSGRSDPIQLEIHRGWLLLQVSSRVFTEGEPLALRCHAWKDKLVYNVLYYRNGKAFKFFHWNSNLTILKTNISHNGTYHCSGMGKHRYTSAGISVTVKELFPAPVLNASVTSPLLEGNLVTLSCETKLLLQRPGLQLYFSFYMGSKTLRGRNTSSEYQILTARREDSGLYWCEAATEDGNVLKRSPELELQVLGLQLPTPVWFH", "experiment": "SPR (Biacore T100), antibody captured on Protein A, FcγR analyte, 1:1 Langmuir", "protocol": "(§1) HBS-EP+ (GE Healthcare) was used as the running buffer, and the measurement temperature was set to 25° C."}, "[2]": {"molecular_target": "T2, FcγRIIIa extracellular domain with C-terminal His tag (allotype not given) (human, UniProt P08637 partial chain)", "T2 construct": "extracellular domain; also called CD16A; not shown: His tag at the C terminus", "T2 sequence (P08637 17-208)": "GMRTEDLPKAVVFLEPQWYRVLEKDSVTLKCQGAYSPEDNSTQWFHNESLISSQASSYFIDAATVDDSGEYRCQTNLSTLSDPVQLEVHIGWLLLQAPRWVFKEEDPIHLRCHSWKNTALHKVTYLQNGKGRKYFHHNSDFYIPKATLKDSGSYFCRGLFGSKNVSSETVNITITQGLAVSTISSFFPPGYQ", "experiment": "SPR (Biacore T100), KD by Equation 2 from Req (weak binding)"}, "[3]": {"molecular_target": "T3, FcγRIIa type H extracellular domain with C-terminal His tag (human, UniProt P12318 34-217)", "T3 construct": "extracellular domain; also called FcγRIIa H; FcγRIIaH; not shown: His tag at the C terminus", "T3 sequence (looked up)": "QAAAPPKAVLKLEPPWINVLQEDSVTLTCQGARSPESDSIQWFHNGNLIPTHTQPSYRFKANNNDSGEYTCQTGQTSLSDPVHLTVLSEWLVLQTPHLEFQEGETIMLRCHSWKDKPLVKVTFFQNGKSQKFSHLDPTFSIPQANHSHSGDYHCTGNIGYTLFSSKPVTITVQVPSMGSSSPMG", "experiment": "SPR (Biacore T100), KD by Equation 2 from Req (weak binding)"}, "[4]": {"molecular_target": "T2, FcγRIIIa extracellular domain with …", "experiment": "SPR (Biacore T100), 2 µmol/L FcγR on captured antibody", "protocol": "as §1"}, "[5]": {"molecular_target": "T3, FcγRIIa type H extracellular domain …", "experiment": "SPR (Biacore T100), 2 µmol/L FcγR on captured antibody", "protocol": "as §1"}},
  "data": [
    {"binder": "IgG1-v1 (antibody, IL6R-G1d with P238D (EU); also called IL6R-G1d-v1/IL6R-L; copies: 2 + 2) heavy: QVQLQESGPGLVKPSETLSLTCAVSGHSISHDHAWSWVRQPPGEGLEWIGFISYSGITNYNPSLQGRVTISRDNSKNTLYLQMNSLRAEDTAVYYCARSLARTTAMDYWGEGTLVTVSS[here human IgG1 constant region with P238D (EU numbers) without letters] light: DIQMTQSPSSLSASVGDRVTITCRASQDISSYLNWYQQKPGKAPKLLIYYTSRLHSGVPSRFSGSGSGTDFTFTISSLQPEDIATYYCQQGNTLPYTFGQGTKVEIKRTVAAPSVFIFPPSDEQLKSGTASVVCLLNNFYPREAKVQWKVDNALQSGNSQESVTEQDSKDSTYSLSSTLTLSKADYEKHKVYACEVTHQGLSSPVTKSFNRGEC", "values": [
      {"measurement": "Kd", "setting": "[1]", "value": 0.0073, "unit": "µM"},
      {"measurement": "Kd", "setting": "[2]", "value": 51, "unit": "µM"},
      {"measurement": "Kd", "setting": "[3]", "value": 56, "unit": "µM"},
      {"measurement": "amount of binding (Req)", "setting": "[4]", "value": "~2.5", "unit": "RU"},
      {"measurement": "amount of binding (Req)", "setting": "[5]", "value": "~2.5", "unit": "RU"}
    ]},
    {"binder": "IgG1-v2 (antibody, IL6R-G1d with L328E (EU); also called IL6R-G1d-v2/IL6R-L; copies: 2 + 2) heavy: QVQLQESGPGLVKPSETLSLTCAVSGHSISHDHAWSWVRQPPGEGLEWIGFISYSGITNYNPSLQGRVTISRDNSKNTLYLQMNSLRAEDTAVYYCARSLARTTAMDYWGEGTLVTVSS[here human IgG1 constant region with L328E (EU numbers) without letters] light: DIQMTQSPSSLSASVGDRVTITCRASQDISSYLNWYQQKPGKAPKLLIYYTSRLHSGVPSRFSGSGSGTDFTFTISSLQPEDIATYYCQQGNTLPYTFGQGTKVEIKRTVAAPSVFIFPPSDEQLKSGTASVVCLLNNFYPREAKVQWKVDNALQSGNSQESVTEQDSKDSTYSLSSTLTLSKADYEKHKVYACEVTHQGLSSPVTKSFNRGEC", "values": [
      {"measurement": "Kd", "setting": "[1]", "value": 0.00046, "unit": "µM"}
    ]}
  ]
}
